Source: patent publication US12403200B2, “Methods and compositions for treating autoimmune diseases” (priority 2019, dated 2025)

Legend:
resting T cells = test: Adoptive transfer of splenocytes from treated B6 mice into NSG hosts (allogeneic response); assay type: in vivo, mouse; conditions: splenocytes isolated 7 days after treatment of B6 mice
Method: B6 mice (H-2^b) were treated with vehicle, Isotype-ADC, or CD45-ADC (anti-CD45 mAb conjugated to PBD). After 7 days, splenocytes were isolated, labelled with CellTrace Violet, and adoptively transferred into naïve, immunodeficient NSG hosts (H-2^g7, H-2d). Cells were isolated from peripheral blood (d2 and d7) and spleen (d7) at various times post transfer and assessed for CTV staining intensity (FIG. 8A), the absolute number of T cells in the peripheral blood as a function of days post-transfer (FIG. 8B), and the absolute number of T cells in the spleen seven days post-transfer (FIG. 8C).

[1] = tested on: proliferating allogeneic T cells; test: Sclerodermatous GvHD (scGVHD) model, in vivo T cell depletion; design: species or system mouse
Method: DBA/2 and Balb/c (CD45.1) mice were purchased from the Jackson Laboratories. Balb/c (CD45.1) mice were conditioned with 6.5 Gy total body irradiation (TBI) 24 h prior to allogeneic (Allo) adoptive cell transfer of DBA/2 (CD45.2) splenocytes (see study design in FIG. 3A).
Host animals (CD45.1+) were treated with a single intravenous dose (3 mg/kg) administration of anti-mouse CD45-ADC, or isotype-ADC 7 days post initiation of scGvHD (CD45.2+ cells). Animals were euthanized on day 12 post initiation (5 days post ADC administration). Tissues (blood, spleen) were analyzed for allogeneic cells, T-cells, and proliferating T cells (FIGS. 3B and 3C).

murine T cells = test: In vitro killing of αCD3-stimulated murine T cells; assay type: cell-based, mouse
Method: Mouse PBMCs were cultured with plate bound αCD3 clone 145-2C11C to promote survival and expansion of murine T cells. T cells were cultured with an anti-mouse CD45-ADC (anti-CD45 mAb conjugated to PBD) or an isotype-ADC, and total T cell number and percentage of proliferating (Ki67+) T cells were assessed.

C57BL/6 (CD45.2+) mice = test: MOG-induced EAE model with congenic transplant; assay type: in vivo, mouse
Method: Experimental Autoimmune Encephalomyelitis (EAE) Model: C57BL/6 (CD45.2) mice were induced with MOG35-55 peptide in complete Freund's adjuvant, followed by the administration of pertussis toxin (PTX) at 4 h post MOG35-55 and 24 h post initial dose of PTX. Disease onset was around 9-12 days post induction. Animals were scored twice a day for a duration of 80 days post EAE induction. EAE Clinical Scoring Scale: 1-limp tail; 2-partial hind limb paralysis; 3-Complete hind limb paralysis; 4-Complete hind and partial front limb paralysis; 5-moribund bound. Animals were euthanized at 2 consecutive scores of 4. Terminal analysis of tissues (peripheral blood, lymph nodes) were evaluated to determine chimerism and immune component of the relapsing EAE mice. Lymph node cells were stimulated (S) with PMS/lonomycin (50 ng/mL) and Brefeldin A (1 μg/mL) or not stimulated (NS) and evaluated for T cell chimerism (donor, host) and IL-17 production.
To induce EAE in a murine model, C57BL/6 (CD45.2+) mice were induced with MOG35_55 peptide in complete Freund's adjuvant, followed by the administration of pertussis toxin (PTX). […]

C57BL/6 (CD45.2) mice = test: Conditioning for congenic bone marrow transplant in mice; assay type: in vivo, mouse
Method: C57BL/6 (CD45.2) and C57BL/6 (CD45.1) mice were purchased from the Jackson Laboratories. C57BL/6 (CD45.2) mice were conditioned with a single intravenous dose administration of anti-mouse CD45-ADC (0.3, 1, or 3 mg/kg) or Isotype-ADC (isotype control mAb conjugated to PBD) (3 mg/kg) 48 h prior to transplant (see FIG. 1A for depiction of study design). 5 Gy TBI was used as the conventional conditioning positive control administered 24 h prior to transplant. Conditioned mice were transplanted with 2×10^7 whole bone marrow cells harvested from pooled C57BL/6 CD45.1 congenic donor, and chimerism was assessed over 16 weeks. Peripheral blood was harvested at week 4, 8, 12, and 16, and assessed by flow cytometry.
To model this approach in mice, an ADC targeting murine CD45 (anti-CD45 mAb conjugated to PBD) was generated as a single conditioning agent for murine congenic transplant. The murine CD45 ADC specifically targets the CD45.2 isoform of mouse CD45, and is engineered to eliminate effector function, allow for site-specific conjugation of linker payload, and be rapidly cleared. The payload for this murine tool ADC is potent and preferentially kills dividing cells. The anti-mouse CD45 ADC was evaluated for the ability to condition recipients in a murine congenic transplant model following a single myeloablative dose. This ADC was further evaluated for its ability to eliminate pathogenic host-reactive cells and enable immune reset in recipients in the context of multiple murine models of autoimmune disease, including MOG-induced experimental autoimmune encephalitis (EAE; a murine model of multiple sclerosis (MS)), proteoglycan-induced arthritis (PGIA), type 1 diabetes, and sclerodermatous graft-vs-host disease (scGVHD).

Balb/c mice (CD45.2+) = test: Proteoglycan-induced arthritis (PGIA) model with congenic BMT; assay type: in vivo, mouse
Method: Conditioning with an anti-mouse CD45-ADC (anti-CD45 mAb conjugated to PBD) prior to bone marrow transplant was assessed in mouse proteoglycan-induced arthritis (PGIA), a murine model of rheumatoid arthritis. As depicted in FIG. 9A, Balb/c mice (CD45.2+) were given 3 immunizations (study day 0, 21, and 42) with recombinant human core G1 aggrecan (60 μg in 2 mg DDA). Animals were treated on day 11 post the final immunization (study day 53) and conditioned animals were transplanted with Balb/c CD45.1+ congenic BM 48 hours later. Animals treated with a neutralizing monoclonal antibody to murine TNFα received 500 μg/mouse IP weekly starting on study day 53.
The clinical scoring system for the model as developed by Glantt and Mikecz (Methods in Molecular Medicine, Vol. 102 (17):313-338) was used to score animals, with examples from control and CD45-ADC-treated animals shown in FIG. 9D.

RIP-OVA mice = test: Adoptive transfer model of Type I diabetes (RIP-OVA/OT-I/II); assay type: in vivo, mouse; conditions: 1 or 3 mg/kg single dose plus congenic HSC transplant; n=6
Excerpt: RIP-OVA mice are B6 mice that express chicken ovalbumin in β-islet cells of pancreas. Central and peripheral tolerance mechanisms combine such that the adaptive immune system recognizes OVA as self. OT-I (MHC I-restricted) and OT-II (MHC II restricted) are two TCR Tg lines that specifically recognize epitopes of OVA. They were maintained on a B6 background.
Adoptive transfer of OT-I and OT-II into RIP-OVA mice led to destruction of β islet cells and onset of diabetes. Diabetes onset was monitored by blood glucose level (tail vein nick to test on strips; glucose >14.3 mmol/L). Mice became diabetic in this model 5-12 days after transfer of CD8+ OT-I cells (two consecutive measurements of 250 mg/dL, Drujont PLoS One 2014). Mice were peeled off on day 6 post adoptive transfer (n=4/treatment). Flow cytometry was performed on peripheral blood, spleen, dLN, and pancreas for Vβ5, Vα2 to measure transferred cells. Subsequently, mice (n=6 mice/group) were transplanted with 2×10^7 cells from B6 CD45.1 two days post-treatment. Body weight, BCS, and blood glucose 2× week were measured as endpoints.
RIP-OVA mice were treated with either a vehicle control, anti-Thy1.2 (500 ug), 9 Gy TBI, 1 mg/kg or 3 mg/kg Isotype-ADC (Iso-PBD), or 1 mg/kg or 3 mg/kg CD45-ADC (CD45-PBD).

B1: anti-mouse CD45-ADC: anti-mouse CD45-ADC containing an anti-CD45 antibody conjugated to pyrrolobenzodiazepine (PBD); targets the CD45.2 isoform of mouse CD45 (conjugate)
heavy: EVQLVESGGGLVQPGGSLRLSCAASGFTFEAYSMNWVRQAPGKGLEWVSYISLSGATIHYADSVKGRFTISRDNAKNSLYLQMNSLRAEDTAVYYCARGGQYYYTSSDYGEVAFDIWGQGTMVTVSSASTKGPSVFPLAPSSKSTSGGTAALGCLVKDYFPEPVTVSWNSGALTSGVHTFPAVLQSSGLYSLSSVVTVPSSSLGTQTYICNVNHKPSNTKVDKKV[omitted - human IgG1 Fc with L234A L235A D265C H435A (EU numbers)]
light: DIVMTQSPLSLPVTPGEPASISCRSSQSLVSSGYNYLDWYLQKPGQSPQLLIYFGSSRASGVPDRFSGSGSGTDFTLKISRVEAEDVGVYYCMQRRRTPWSFGGGTKVEIKRTVAAPSVFIFPPSDEQLKSGTASVVCLLNNFYPREAKVQWKVDNALQSGNSQESVTEQDSKDSTYSLSSTLTLSKADYEKHKVYACEVTHQGLSSPVTKSFNRGEC
T cell expansion after adoptive transfer into immunodeficient allogeneic recipients (resting T cells): could not proliferate
depletion of T-cells in spleen or peripheral blood ([1]; 3 mg/kg single iv dose 7 days post initiation, 5 days post ADC, compared to Isotype-ADC): greater depletion of T-cells
depletion of proliferating allogeneic T cells ([1]; 3 mg/kg single iv dose, compared to isotype-ADC): selectively depletes a greater percentage of proliferating allogeneic T cells
proliferating T cells (Ki67+) (murine T cells; increasing doses, compared to Isotype-ADC): dose responsive decrease of proliferating T cells
total T cell number (murine T cells; vs. Isotype-ADC): substantially reduces the number of T cells
EAE disease onset (FIG. 5E) (C57BL/6 (CD45.2+) mice; 1 mg/kg CD45-ADC): 21 days
EAE peak disease score (FIG. 5E) (C57BL/6 (CD45.2+) mice; 1 mg/kg CD45-ADC): 2.1
EAE disease onset (FIG. 5E) (C57BL/6 (CD45.2+) mice; 3 mg/kg CD45-ADC+BMT): 42 days
EAE peak disease score (FIG. 5E) (C57BL/6 (CD45.2+) mice; 3 mg/kg CD45-ADC+BMT): 0.75
Incidence (C57BL/6 (CD45.2+) mice; Table 3, EAE incidence, treatment groups of FIG. 5G): 25%
Mean Time to EAE onset (C57BL/6 (CD45.2+) mice; Table 3, treatment groups of FIG. 5G): 38 days
donor chimerism in EAE mice (terminal analysis of tissues) (C57BL/6 (CD45.2+) mice; conditioning day 5 post-immunization, congenic transplant 48 h later): full donor chimerism
mean time to EAE disease onset (C57BL/6 (CD45.2+) mice; conditioning followed by congenic transplant prior to disease onset (FIG. 5G)): 38 days
EAE disease incidence (C57BL/6 (CD45.2+) mice; conditioning followed by congenic transplant prior to disease onset (FIG. 5G), n=12): 25%
peak disease score in active EAE (C57BL/6 (CD45.2+) mice; treatment at day 13): 2.3
peak disease score in active EAE (C57BL/6 (CD45.2+) mice; treatment on day 10, 3 mg/kg, followed by congenic transplant): 0.75
progression of disease activity in active EAE (C57BL/6 (CD45.2+) mice; treatment on day 10 or day 13): halted progression of disease activity
donor chimerism following congenic transplant (C57BL/6 (CD45.2) mice; 3 mg/kg, iv, single dose, 48 h prior to transplant): full donor chimerism
myeloablation in recipient mice (C57BL/6 (CD45.2) mice; single dose 3 mg/kg): full myeloablation
depletion of LT-HSCs (Lin−Kit+Sca−1+CD150+CD48−) (C57BL/6 (CD45.2) mice; single dose 3 mg/kg, congenic mouse transplant model): > 99%
chimerism at 16 weeks (C57BL/6 (CD45.2) mice; single dose 3 mg/kg, transplanted with congenic BMT): > 90%
full congenic donor chimerism enabled in peripheral blood and bone marrow (Balb/c mice (CD45.2+); 2 mg/kg, 3 weeks post-transplant): enabled full congenic donor chimerism
arthritis disease progression (Balb/c mice (CD45.2+); therapeutic intervention day 11 post 3rd immunization, with BMT): halted disease progression
diabetes incidence (RIP-OVA mice): zero out of the 6 mice
